# Test results published in the supplement of paper PMC3724861.
# This is one part of the list.
# System: T1, Caupolican (Caup) homeodomain DNA-binding domain
# T1 sequence: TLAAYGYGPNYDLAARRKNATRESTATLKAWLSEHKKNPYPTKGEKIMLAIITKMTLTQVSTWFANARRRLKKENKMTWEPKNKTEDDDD
# Test: PBM E-score (8-mer, recovered from the published 9-mer minima) (E-score (dimensionless, -0.5 to 0.5)); Drosophila protein; higher = stronger relative binding preference, active = 0.31 or more
# Procedure, shortened: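 Caup's homeodomain DNA-binding domain (residues 214-303) was made by in vitro transcription and translation and applied at 100 nM to custom-designed protein binding microarrays. Each value is an enrichment score that gives relative binding preference for a short DNA word, with higher meaning stronger. The 8-mer values were recovered from published 9-mer scores, each of which was the minimum of its two constituent 8-mer scores. A cutoff of 0.31 marks candidate sites.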
row,Sequence,PBM E-score
1,AAGTTTGT,inactive: 0.173
2,AAGGATTG,≥ 0.0955
3,ACATCGTG,inactive: 0.219
4,CTCTCTCA,inactive: -0.119
5,CATCTCAC,inactive: -0.0485
6,CACACACC,inactive: 0.123
7,CTCCGGCC,inactive: -0.351
8,AACCGATC,inactive: 0.0187
9,GTCACATA,inactive: 0.173
10,CGCCGTGC,inactive: -0.163
11,GCTCGCGA,inactive: -0.0573
12,GATAGGTA,inactive: 0.124
13,AATCCTGG,inactive: -0.0874
14,ACATTTAG,inactive: 0.184
15,TCGATCGA,inactive: -0.0238
16,AACTGGCC,inactive: -0.147
17,CCAAGATA,inactive: 0.106
18,AGCGTTAT,≥ 0.0476
19,ACGATGTC,inactive: 0.261
20,GATATCTA,inactive: 0.125
21,CATCGCCA,inactive: -0.0902
22,AAACCCTT,inactive: 0.0757
23,GAAGGTGC,inactive: -0.107
24,GTTCTCTA,inactive: 0.028
25,CGCTTAGA,inactive: -0.12

row,Sequence,PBM E-score
1,CATGCCAG,inactive: -0.0687
2,ATCATGAG,inactive: 0.0725
3,GATACCTA,inactive: 0.124
4,ATTTCGCC,inactive: -0.0602
5,CGTTTCTA,inactive: 0.0559
6,AGCGAACG,inactive: -0.172
7,CGGAGCCG,inactive: -0.275
8,ACGAATCG,inactive: 0.0318
9,CGGTTGCA,inactive: -0.0742
10,GATACAGA,inactive: 0.164
11,CGGCTGAC,inactive: -0.0396
12,CTTCTCGC,inactive: -0.104
13,AGCTACAC,inactive: 0.266
14,TCCAGTAA,inactive: -0.0383
15,AGTGTTTG,inactive: 0.236
16,TACTAGCA,≥ 0.174
17,CTTAGGAC,inactive: 0.0158
18,CCCACGAA,inactive: -0.128
19,GCTACCCC,inactive: -0.199
20,CGTACCAC,inactive: 0.0316
21,CAGCAGCC,inactive: -0.127
22,ACGGTCAC,inactive: -0.133
23,CACGCAAC,inactive: 0.0415
24,AACACCTA,inactive: 0.183
25,CCCATGCC,inactive: -0.203

row,Sequence,PBM E-score
1,ACGCCACG,inactive: -0.128
2,ATCCGCCC,inactive: -0.211
3,GACACACA,inactive: 0.258
4,CCGCCAGA,inactive: -0.121
5,CAGAAGGG,inactive: -0.177
6,ACACTGTG,inactive: 0.158
7,TCCGAACA,inactive: 0.159
8,AAAGGGGA,inactive: -0.201
9,ACACGCAC,inactive: 0.213
10,CGCGCGAC,inactive: -0.143
11,TCTTAGCA,inactive: -0.078
12,AGTAAGTG,inactive: 0.00023
13,GGCGCGAA,inactive: -0.169
14,ATATATTA,≥ 0.265
15,GTGAACAC,inactive: 0.256
16,AGTGACCA,≥ 0.00982
17,ACAACATG,active: 0.441
18,ATGCGGAG,inactive: -0.09
19,AGTTCTAT,inactive: 0.0299
20,ACGAGTGA,inactive: 0.0281
21,CTGTTGGC,inactive: -0.0498
22,TCGTTAGA,inactive: -0.0692
23,GGCTGGGA,inactive: -0.226
24,GTATAAAA,inactive: 0.116
25,CATCCCGA,inactive: 0.0331

row,Sequence,PBM E-score
1,GCCTCTCA,inactive: -0.189
2,GGTTTCAC,inactive: 0.0672
3,GTAACTTA,inactive: 0.176
4,TGTTAGAA,inactive: 0.242
5,ACACCTAT,inactive: 0.145
6,AACGGCCG,≥ -0.0889
7,AACCTCTC,inactive: -0.106
8,AGACGTAC,inactive: 0.0508
9,CCCAGGCA,inactive: -0.162
10,CCGTGAGG,inactive: -0.208
11,CGATACTC,inactive: -0.0512
12,ACCGCCAT,inactive: -0.0994
13,CTTCGCCA,inactive: -0.113
14,AAGCCCAC,inactive: -0.142
15,CAATCATC,inactive: 0.024
16,GCGAGACA,inactive: 0.0367
17,AGTTCTGG,inactive: -0.0428
18,ACCATGCA,inactive: 0.0966
19,CAATCATG,inactive: 0.179
20,GATTCGCA,inactive: -0.0575
21,CCTAAGGC,inactive: -0.234
22,GACCCGAA,inactive: -0.123
23,GATTACCC,inactive: 0.0655
24,GATAGGCC,inactive: -0.139
25,CAAAATCG,inactive: 0.00958

row,Sequence,PBM E-score
1,ACGTCCCG,inactive: -0.18
2,AGACTTGC,inactive: -0.025
3,CGGATCCC,inactive: -0.2
4,AGCATTTA,inactive: 0.00903
5,ACGCGTCC,inactive: -0.12
6,CTGGCAGC,inactive: -0.225
7,CTGGCCGA,inactive: -0.224
8,GTACTGAA,inactive: 0.126
9,ACAATGGC,inactive: 0.0838
10,ATCGAGAA,≥ 0.111
11,AAGCAGTA,inactive: 0.00217
12,CACCTAAA,inactive: 0.0144
13,GCGTAGCC,inactive: -0.154
14,CATGGTCA,inactive: 0.145
15,CGAGATCC,inactive: -0.0366
16,ACAAGCTG,inactive: 0.2
17,AGGAGGTG,inactive: -0.0888
18,CAAGCGCG,inactive: -0.0994
19,GGCTAATA,inactive: 0.0405
20,AGAAAGGG,inactive: -0.122
21,CGCTTTGC,inactive: -0.0868
22,GTCTTCTA,inactive: 0.00178
23,CACACGCC,inactive: -0.0239
24,CTAATTCC,inactive: 0.114
25,AGTCACGG,inactive: -0.0412

row,Sequence,PBM E-score
1,AGGCGCAT,inactive: -0.0417
2,GTCAAGAA,inactive: 0.0535
3,ATTGTGAC,inactive: 0.125
4,ATTTAAAA,inactive: 0.0428
5,AGAGTCTA,≥ -0.00144
6,CGCACACG,inactive: -0.117
7,GGGACCTA,inactive: -0.169
8,AATCAAGG,inactive: -0.0667
9,CTAGCAGA,inactive: -0.018
10,CCCAAGTA,inactive: -0.126
11,CCCGGCAC,inactive: -0.152
12,GTACGCAA,inactive: 0.106
13,GCAGTTTA,inactive: 0.00229
14,CTGAGGGA,inactive: -0.138
15,AACCATAA,inactive: 0.103
16,ACCGCACC,inactive: -0.127
17,TAGAAGCA,inactive: -0.00473
18,AGGTGTTG,inactive: 0.125
19,TCATTCAA,inactive: 0.0654
20,GTGTCGGA,inactive: 0.204
21,GGAGTGAA,inactive: -0.0468
22,AGCTGAAG,inactive: -0.0859
23,AGCACCGC,inactive: -0.176
24,AACGGTGC,≥ 0.0809
25,ACTGGGCC,≥ -0.0895

row,Sequence,PBM E-score
1,CGAACCTC,inactive: -0.0651
2,CAGCCTTA,inactive: -0.0523
3,AAGTGGAA,inactive: 0.0309
4,CAATAATA,inactive: 0.182
5,CCCAAACC,inactive: -0.207
6,CCGCTATC,inactive: -0.126
7,CTCTGCAC,inactive: -0.107
8,AATACGCC,inactive: -0.0369
9,AAAGCACT,inactive: 0.0422
10,GGATTTGA,inactive: -0.0346
11,CGTCCCCA,inactive: -0.168
12,CCTATACA,inactive: 0.176
13,CACGGTGC,inactive: -0.0185
14,CCATCGCC,inactive: -0.211
15,ACGACCCG,inactive: -0.0769
16,ACGGGGGA,inactive: -0.194
17,GGGAATAA,inactive: 0.00766
18,ATAAAAAG,inactive: 0.112
19,AAAGCGAC,inactive: 0.033
20,ATCGGTCA,inactive: -0.00776
21,CATTATCG,inactive: 0.109
22,CTGGTGAA,inactive: 0.0261
23,ACGGAACC,inactive: 0.105
24,CTACGTAC,inactive: 0.144
25,ACAAGGAT,active: 0.315

row,Sequence,PBM E-score
1,GAATAATA,inactive: 0.151
2,GACGGTTA,inactive: -0.0833
3,AGCCTAGG,inactive: -0.191
4,AATTCGGT,inactive: 0.0391
5,ACCTTAAA,inactive: -0.0366
6,AGGTTTTC,inactive: 0.0417
7,ACAGATAC,inactive: 0.201
8,GTACAGCA,inactive: 0.148
9,ATACACAT,active: 0.311
10,GGCATCAC,inactive: -0.0612
11,GGTATCAC,inactive: 0.0523
12,ACGATTGC,inactive: 0.116
13,ACTTAATC,inactive: 0.0653
14,CTGTATAC,inactive: 0.246
15,GTCAGTCA,inactive: 0.0572
16,GTCACCTA,inactive: -0.00573
17,GCGCTGAC,inactive: -0.0973
18,CTATTTTC,inactive: 0.101
19,CGAGGAAA,inactive: -0.0474
20,ATGACGGC,inactive: -0.128
21,CTGCACCC,inactive: -0.126
22,ATATTCCA,inactive: 0.0978
23,CATCCCAG,inactive: -0.082
24,CATAGTGA,inactive: 0.155
25,CGCAGACA,inactive: 0.0571

row,Sequence,PBM E-score
1,ACCGAGCT,inactive: -0.0939
2,GGATGCCC,inactive: -0.163
3,CTAGGTAC,inactive: 0.127
4,CATATACA,inactive: 0.298
5,ATAACTCC,inactive: -0.0329
6,AAATCCTC,inactive: -0.0384
7,TCGTTGAA,inactive: 0.0743
8,ACTTGTGC,inactive: 0.0346
9,CAAAGAGA,inactive: -0.0852
10,AAAAGTCA,inactive: 0.0226
11,CGCTAAAG,inactive: -0.087
12,AAGGTACA,inactive: 0.274
13,CAGCAGAG,inactive: -0.189
14,AAGCGTCC,inactive: -0.109
15,AGATATGC,inactive: 0.0723
16,CTTTACAC,inactive: 0.289
17,GCTGGCCC,inactive: -0.316
18,AAGCATAT,inactive: 0.105
19,AACCTTCA,inactive: 0.0236
20,AGGAGTTG,inactive: 0.0303
21,CAAAGCCC,inactive: -0.185
22,ACGTGGAC,inactive: -0.0344
23,ACCGGACA,≥ 0.144
24,CGGCTAGA,inactive: -0.124
25,CTGGTCAC,inactive: 0.00982
